Several values for one entry are separate records, joined by “and”; a condition that tells them apart may be missing. Equal values may be shown once. Hit rate of the full screen: of about 270,000 compounds, about 5,800 (2.1%) were called active. The shares of active, inactive and inconclusive entries below differ from those in the screen. The call rests on the fitted dose curve; in most records, active means well fitted inhibition curve with a large enough effect; inconclusive means small, poorly fitted or top-dose-only effect; inactive means flat fitted curve, though single readings scatter. Potencies of inconclusive entries are doubtful fits and often do not repeat.
Biological target: Microtubule-associated protein tau (Homo sapiens) (UniProt P10636)
Chain of UniProt P10636 (P10636 whole entry, looked up): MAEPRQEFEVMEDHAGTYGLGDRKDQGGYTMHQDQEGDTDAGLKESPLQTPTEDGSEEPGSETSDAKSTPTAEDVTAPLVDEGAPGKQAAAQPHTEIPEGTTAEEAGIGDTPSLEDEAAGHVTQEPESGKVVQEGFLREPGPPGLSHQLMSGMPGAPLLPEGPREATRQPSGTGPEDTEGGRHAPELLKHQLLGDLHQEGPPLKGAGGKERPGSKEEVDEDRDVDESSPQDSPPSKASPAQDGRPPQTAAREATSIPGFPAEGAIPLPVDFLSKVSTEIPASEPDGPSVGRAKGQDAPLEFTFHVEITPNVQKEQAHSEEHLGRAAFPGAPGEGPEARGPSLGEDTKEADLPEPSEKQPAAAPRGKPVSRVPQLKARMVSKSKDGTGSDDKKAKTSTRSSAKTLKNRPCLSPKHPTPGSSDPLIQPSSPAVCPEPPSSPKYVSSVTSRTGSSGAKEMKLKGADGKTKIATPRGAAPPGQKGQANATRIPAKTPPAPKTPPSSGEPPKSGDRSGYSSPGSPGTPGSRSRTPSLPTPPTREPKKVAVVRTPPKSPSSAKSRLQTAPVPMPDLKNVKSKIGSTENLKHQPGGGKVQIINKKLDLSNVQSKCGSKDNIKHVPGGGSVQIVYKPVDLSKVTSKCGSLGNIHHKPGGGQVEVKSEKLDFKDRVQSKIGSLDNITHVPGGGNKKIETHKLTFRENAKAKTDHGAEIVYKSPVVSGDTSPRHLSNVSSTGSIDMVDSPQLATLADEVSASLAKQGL
Experiment: qHTS for Inhibitors of Tau Fibril Formation, Thioflavin T Binding; further: nearly all actives have a fitted effect of over 55% in size
Conditions: recombinant tau K18 P301L (four-repeat tau fragment), heparin-induced fibrillization, ThT fluorescence; series mostly up to 57.4 µM; activity, negative = inhibition: at the top concentration
How it was run: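 Tau K18 P301L fragment (15 uM unlabeled plus 0.24 uM Alexa 594-labeled) in 100 mM sodium acetate pH 7 with compound, fibrillization induced by 20 uM heparin for 6 hr at 37 C. Thioflavin T (30 uM) added, fluorescence read after 1 hr (ex 450, em 510 nm).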
On the % scale 0 is the no-effect control and ±100 the full control effect; potency means the concentration at half of the fitted maximal effect; tags describe the fitted curve by direction and shape.

Structure (SMILES) | activity, negative = inhibition | Potency
CCCc1noc(-c2ccc(NCc3ccc(C)cc3)c([N+](=O)[O-])c2)n1 | inactive: 2.4% | –
COc1ccc2sc3ccccc3c(=O)c2c1OC | – | inconclusive: 20 µM [inhibitor, partial curve]
CCCc1cnc2c(c1SCc1cccc(F)c1)c(=O)n(C)c(=O)n2C | – | inconclusive: 15.8 µM [inhibitor, single point]
O=C(CCC1N=C2c3ccccc3N=C(SCc3ccccc3Cl)N2C1=O)NCc1ccco1 (stereo unspecified) | – | inconclusive: 44.7 µM [inhibitor, single point]
Cc1ccccc1-c1cc2nccc(-c3cc(Cl)ccc3O)n2n1 | inactive: 8.57% | –
Cc1ccc(NC(=S)Nc2ccc3cn[nH]c3c2)c(C)c1 | – | inconclusive: 6.31 µM [inhibitor, partial curve]
FC(F)(F)c1ccc(-c2noc(-c3ccccc3)c2I)cc1 | inactive: -7.73% [at 81.4 µM] | –
COc1cccc(NC(=O)CCc2c(C)nc3ncnn3c2C)c1 | inactive: 5.44% | –
CC(/C=N/NC(=O)c1nn(C)c(C)c1Br)=C\c1ccccc1 | – | inconclusive: 39.8 µM [inhibitor, single point]
Cc1noc(C)c1CSc1nc2ccccc2nc1NS(=O)(=O)c1ccc(Cl)cc1 | – | inconclusive: 17.8 µM [inhibitor, partial curve, poor fit]
COc1ccc(N(Cc2cccs2)C(=O)Nc2cccc(Cl)c2)cc1 | inactive: -5.03% | –
CCOc1ccc2nc(NC(=O)CSc3nnc(-c4ccncc4)n3CC3CCCO3)sc2c1 (stereo unspecified) | – | inconclusive: 5.01 µM [inhibitor, partial curve]
O=C(Nc1nc(=S)ss1)c1c(F)cccc1F | inactive: -3.77% | –
COc1ccc(-c2nc(SCC(=O)NC3CCCC3)c(-c3ccc(C)cc3)[nH]2)cc1OC | – | inconclusive: 17.8 µM [inhibitor, partial curve]
COc1ccc(C2C(=O)N(C3CCCCC3)CC(=O)N2C2CCCC2)cc1 (stereo unspecified) | inactive: -8.71% | –
COc1ccc(N2CCN(C(=O)CNC(=O)c3ccc(C(C)(C)C)cc3)CC2)cc1 | – | inconclusive: 2.51 µM [inhibitor, full curve]
Cc1[nH]n2c(=O)c3c(nc2c1-c1ccc(Cl)cc1)CCC3 | inactive: -6.78% | –
O=C(CSc1ncccn1)NC(=O)c1ccccc1 | inactive: 10.7% | –
Cc1c(C(=O)OCC(=O)NCC2CCCO2)cccc1[N+](=O)[O-] (stereo unspecified) | inactive: -2.37% | –
CCC(C)(C)NC(=O)CN(Cc1ccccc1Cl)C(=O)CCC(=O)Nc1cc(C)ccn1 | – | inconclusive: 28.2 µM [inhibitor, single point]
Cc1cccc(NC(=O)CNc2cc(C)ccc2C)c1 | – | inconclusive: 35.5 µM [inhibitor, single point]
Nc1nc(CCl)nc(Nc2ccc3ccccc3c2)n1 | – | inconclusive: 3.55 µM [inhibitor, full curve, poor fit]
CC1CCCC(C)N1C(=O)c1cc(-c2cccs2)on1 (stereo unspecified) | inactive: -4.04% | –

Structure (SMILES) | activity, negative = inhibition | Potency
Cc1cc(C(=O)NCCC2=CCCCC2)c(C)o1 | – | inconclusive: 31.6 µM [inhibitor, partial curve]
OC[C@@H]1[C@@H](c2ccc(F)cc2)C(c2ccc(F)cc2)=NN1c1ccccc1 | – | inconclusive: 35.5 µM [inhibitor, partial curve]
CCOc1ccc(-c2nc3ccccc3c(=O)o2)cc1 | – | inconclusive: 6.31 µM [inhibitor, full curve, poor fit] and inconclusive: 4.47 µM [inhibitor, partial curve]
O=C(N/N=C/c1ccc(OCc2ccccc2)cc1)c1ccc(O)cc1 | – | inconclusive: 25.1 µM [activator, single point]
O=C(NCC1CCCO1)C(=Cc1cccc([N+](=O)[O-])c1)C(=O)NCC1CCCO1 (stereo unspecified) | – | inconclusive: 14.1 µM [inhibitor, partial curve]
O=C(N/N=C/c1cc([N+](=O)[O-])c(N2CCOCC2)cc1N1CCOCC1)c1cccnc1 | – | inconclusive: 12.6 µM [inhibitor, partial curve]
COc1ccccc1C(=O)Nc1nc(-c2ccc3c(c2)OCCO3)cs1 | inactive: -18.2% | –
COCCN1Cc2cc3cc(C)ccc3nc2SC1=Nc1cccc(OC)c1 | – | inconclusive: 20 µM [inhibitor, partial curve]
Cc1cn2c(=O)cc(COc3ccc(NC(=O)COc4ccccc4)cc3)nc2s1 | – | inconclusive: 0.891 µM [inhibitor, full curve]
CC(C)C1OC(c2cccc(NC(=O)c3cccs3)c2)OCC1(C)C (stereo unspecified) | inactive: 10.5% | –
Cc1ccc(-c2nn(-c3ccccc3)cc2CN(Cc2ccccc2)C(=O)c2ccco2)o1 | – | inconclusive: 3.55 µM [inhibitor, full curve, poor fit]
CN(CC(=O)Nc1ccc(N2CCOCC2)cc1)CC(=O)Nc1ccc([N+](=O)[O-])cc1Br | – | inconclusive: 35.5 µM [inhibitor, single point]
O=C(COc1ccc(Cl)cc1)Nc1ccc(N2CCN(C(=O)c3ccco3)CC2)cc1 | – | inconclusive: 2.82 µM [inhibitor, full curve]
CCc1ccc2oc(C(=O)NCc3ccccc3)cc(=O)c2c1 | inactive: -0.0937% | –
COc1ccc(/C(O)=C2/C(=O)C(=O)N(CCN3CCOCC3)C2c2cccnc2)cc1OC (stereo unspecified) | inactive: -9.28% | –
CNc1sc(C(=O)c2ccccc2F)c(N)c1-c1nc2ccccc2s1 | – | active: 7.94 µM
N#CC1=C(N)N2C(=C(C#N)C1c1ccccc1)Sc1ccccc12 (stereo unspecified) | inactive: -14% | –
COc1cc(N=Nc2c(C)n(C)n(-c3ccccc3)c2=O)ccc1N | – | inconclusive: 39.8 µM [inhibitor, partial curve, poor fit]
CC1CCc2nc(NC(=O)CN3CCN(c4ccc(F)cc4)CC3)sc2C1 (stereo unspecified) | – | inconclusive: 10 µM [inhibitor, partial curve]
Cc1nn(-c2ncc(C(F)(F)F)cc2Cl)c(=O)n1-c1c(F)cccc1F | inactive: -5.26% | –
CCCCOc1ccc(S(=O)(=O)NNC(=O)C2Cc3c(ccc4ccccc34)O2)cc1 (stereo unspecified) | – | inconclusive: 39.8 µM [inhibitor, partial curve]
CCOc1ccccc1C(=O)N1CCOCC1 | inactive: -9.29% | –
CC(C)c1ccc(NC(=O)c2sccc2-n2cccc2)cc1 | – | inconclusive: 39.8 µM [inhibitor, single point]

— PubChem BioAssay AID1460 (National Center for Advancing Translational Sciences (NCATS), 2008)
